Laboratory results from PubChem BioAssay AID504333 (National Center for Advancing Translational Sciences (NCATS), 2011).
In all, about 360,000 compounds went through this assay and about 16,000 (4.4%) were called active. Inconclusive results, whose numbers are uncertain, are shown with a selection of clear calls. The call rests on the fitted dose curve; in most records, active means well fitted inhibition curve with a large enough effect; inconclusive means small, poorly fitted or top-dose-only effect; inactive means no such curve, though single readings can be large or run the other way. Potencies beside an inconclusive call are fits to weak or partial responses and may not hold up.

What follows are compounds tested against Bromodomain adjacent to zinc finger domain protein 2B (Homo sapiens) (UniProt Q9UIF8) (assay: qHTS Assay for Inhibitors of BAZ2B). Details: AlphaScreen BAZ2B-H3K14Ac peptide displacement; series mostly up to 114 µM.
UniProt Q9UIF8, sequence (Q9UIF8 whole entry, looked up, the tested form may be a part): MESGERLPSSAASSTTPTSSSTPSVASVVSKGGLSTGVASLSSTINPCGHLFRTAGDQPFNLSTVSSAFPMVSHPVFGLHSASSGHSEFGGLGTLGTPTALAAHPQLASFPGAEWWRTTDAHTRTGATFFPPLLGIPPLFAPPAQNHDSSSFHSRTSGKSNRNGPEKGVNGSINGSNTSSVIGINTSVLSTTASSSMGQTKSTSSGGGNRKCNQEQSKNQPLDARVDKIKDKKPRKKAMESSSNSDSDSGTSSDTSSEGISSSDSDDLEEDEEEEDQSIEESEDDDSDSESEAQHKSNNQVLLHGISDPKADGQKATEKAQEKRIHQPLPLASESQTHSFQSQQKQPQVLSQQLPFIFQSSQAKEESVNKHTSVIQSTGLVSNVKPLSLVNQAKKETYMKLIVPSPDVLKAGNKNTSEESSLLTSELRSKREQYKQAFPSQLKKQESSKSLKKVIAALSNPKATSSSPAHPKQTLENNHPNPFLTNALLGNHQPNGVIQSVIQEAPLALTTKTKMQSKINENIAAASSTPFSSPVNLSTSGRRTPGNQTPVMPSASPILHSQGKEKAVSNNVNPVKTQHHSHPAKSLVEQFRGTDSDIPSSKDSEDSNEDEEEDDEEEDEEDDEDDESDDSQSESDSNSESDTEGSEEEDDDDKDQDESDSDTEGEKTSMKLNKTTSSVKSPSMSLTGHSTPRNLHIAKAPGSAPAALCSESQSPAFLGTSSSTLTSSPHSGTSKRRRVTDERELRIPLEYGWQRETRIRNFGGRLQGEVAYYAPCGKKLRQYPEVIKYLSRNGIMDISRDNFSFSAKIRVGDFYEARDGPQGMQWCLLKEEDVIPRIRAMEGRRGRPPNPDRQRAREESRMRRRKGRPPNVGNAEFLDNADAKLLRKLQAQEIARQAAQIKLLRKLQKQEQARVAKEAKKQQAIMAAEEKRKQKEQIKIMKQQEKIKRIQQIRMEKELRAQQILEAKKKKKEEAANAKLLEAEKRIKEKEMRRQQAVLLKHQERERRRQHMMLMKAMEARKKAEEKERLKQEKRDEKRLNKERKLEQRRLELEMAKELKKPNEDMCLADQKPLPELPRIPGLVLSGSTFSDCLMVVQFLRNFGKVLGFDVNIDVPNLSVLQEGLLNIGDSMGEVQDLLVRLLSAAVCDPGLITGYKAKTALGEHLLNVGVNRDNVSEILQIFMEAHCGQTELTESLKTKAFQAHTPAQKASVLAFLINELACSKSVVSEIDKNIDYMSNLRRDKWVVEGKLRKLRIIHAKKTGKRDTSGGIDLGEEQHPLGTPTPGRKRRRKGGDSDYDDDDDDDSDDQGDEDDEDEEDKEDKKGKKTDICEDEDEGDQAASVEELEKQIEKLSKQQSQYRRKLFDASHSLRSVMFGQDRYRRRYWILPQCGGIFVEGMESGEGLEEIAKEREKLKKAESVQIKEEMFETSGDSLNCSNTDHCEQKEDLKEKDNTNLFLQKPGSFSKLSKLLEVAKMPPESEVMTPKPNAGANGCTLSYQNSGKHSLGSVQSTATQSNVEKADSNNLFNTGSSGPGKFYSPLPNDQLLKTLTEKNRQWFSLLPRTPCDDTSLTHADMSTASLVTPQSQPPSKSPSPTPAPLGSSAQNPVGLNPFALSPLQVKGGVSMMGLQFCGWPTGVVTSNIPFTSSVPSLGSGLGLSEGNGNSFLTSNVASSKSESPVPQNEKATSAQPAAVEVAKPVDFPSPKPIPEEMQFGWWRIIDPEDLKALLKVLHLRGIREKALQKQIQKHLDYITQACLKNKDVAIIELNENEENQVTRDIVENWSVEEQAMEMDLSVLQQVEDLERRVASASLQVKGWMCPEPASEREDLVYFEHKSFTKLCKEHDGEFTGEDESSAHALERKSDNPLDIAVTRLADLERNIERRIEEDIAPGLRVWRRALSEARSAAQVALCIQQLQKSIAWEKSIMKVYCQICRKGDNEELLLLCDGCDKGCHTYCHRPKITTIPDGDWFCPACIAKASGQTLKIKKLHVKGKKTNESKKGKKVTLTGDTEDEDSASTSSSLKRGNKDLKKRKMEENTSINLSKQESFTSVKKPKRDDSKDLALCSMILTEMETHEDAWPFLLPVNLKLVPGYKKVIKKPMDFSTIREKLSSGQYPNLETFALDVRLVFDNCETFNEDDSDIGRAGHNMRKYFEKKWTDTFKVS
How it was run: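 Compounds, titrated to a top concentration of 110 uM, were incubated 30 min at room temperature with preformed BAZ2B/acetyl-K14 H3 peptide complex (50 nM each). Proximity signal was measured by AlphaScreen after 20 min with beads.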
Further: nearly all actives have a fitted effect of over 60% in size.
Potency means the concentration at half of the fitted maximal effect; tags describe the fitted curve by direction and shape.

Row | SMILES | Potency
1 | O=C1CCC(C(=O)Nc2nnc(C3CC3)s2)=NN1 | inconclusive: 89.1 µM [inhibitor, single point]
2 | CCOC(=O)C1(CCOc2ccccc2)CCN(Cc2ccc(O)c(Cl)c2)CC1 | inconclusive: 56.2 µM [inhibitor, partial curve]
3 | C=CCNc1nnc(Cc2ccc(C(C)C)cc2)c(=O)[nH]1 | inconclusive: 79.4 µM [inhibitor, single point]
4 | NNc1nc(-c2ccccc2)c2cc(Cl)ccc2n1 | inconclusive: 20 µM [inhibitor, full curve]
5 | O=c1c2c([nH]c3ccccc13)C(=C1CCCC1)CC2 | inconclusive: 79.4 µM [inhibitor, single point]
6 | Cc1ccc(CNC(=O)c2nnn(CC(=O)Nc3cc(C)cc(C)c3)c2N)cc1 | inconclusive: 89.1 µM [inhibitor, single point]
7 | Fc1cccc(Cl)c1Cn1nnc2c(-n3ccnc3)ncnc21 | inactive
8 | O=C(N/N=C/c1ccc[nH]1)c1ccccc1OCc1ccccc1Cl | inconclusive: 25.1 µM [inhibitor, full curve]
9 | Cc1ccc(-c2nc(SCc3ccc(Br)cc3)n3[nH]c(=O)cc3n2)cc1 | active: 79.4 µM
10 | NCC(c1ccco1)c1c[nH]c2ccccc12 (centres undefined) | inactive
11 | CCCN1C(=O)C(O)(CC(=O)c2cccc(OC)c2)c2ccccc21 (centres undefined) | active: 56.2 µM
12 | COc1ccc(-n2c(SC)nc3sc4c(c3c2=O)CCN(C)C4)cc1 | inactive
13 | COc1ccc(NC(=O)C2=C(C)Nc3nc(SCc4ccccc4)nn3C2c2cc(OC)ccc2OC)cc1 (centres undefined) | inactive
14 | CCCC(=O)Nc1ccc(C(=O)NNC(=O)c2ccco2)cc1 | inconclusive: 89.1 µM [inhibitor, single point]
15 | O=C(c1ccc2c(Cl)c3c(nc2c1)CCCC3)N1CCN(c2cccc(Cl)c2)CC1 | inactive
16 | CC(C)c1ccc(/C=N/Nc2ccc(C(=O)O)cc2)cc1 | inconclusive: 89.1 µM [inhibitor, single point]
17 | O=c1nc2s/c(=C\c3ccco3)c(=O)n2nc1Cc1ccccc1 | active: 50.1 µM
18 | CCN(CC)Cc1c(C(=O)N/N=C/c2ccccn2)nnn1-c1nonc1N | active: 11.2 µM
19 | CN(C)c1ccc(C(CNS(=O)(=O)c2ccc(Br)cc2)N2CCOCC2)cc1 (centres undefined) | active: 44.7 µM
20 | O=C(CN1C(=O)NC2(CCOc3ccccc32)C1=O)c1ccc[nH]1 (centres undefined) | inactive
21 | Cc1cc(N2CCN(C(c3ccccc3)c3ccc(Cl)cc3)CC2)n2ncnc2n1 (centres undefined) | inconclusive: 44.7 µM [inhibitor, partial curve]
22 | CC1CCN(Cc2c(C(=O)O)nnn2-c2nonc2N)CC1 | inconclusive: 79.4 µM [inhibitor, partial curve]
23 | Fc1ccccc1-n1[nH]nnc1=S | inconclusive: 79.4 µM [inhibitor, single point]
24 | Cc1ccc2sc(NNC(=O)C3COc4ccccc4O3)nc2c1C (centres undefined) | inconclusive: 22.4 µM [inhibitor, full curve]
25 | COc1ccc([N+](=O)[O-])cc1NC(=O)CSc1nc(C)cc(C)n1 | inactive

Row | SMILES | Potency
26 | Cc1ccccc1Nc1nc(-c2sc(NC(=O)c3ccco3)nc2C)cs1 | inconclusive: 50.1 µM [inhibitor, partial curve]
27 | CC(C)(C)OC(=O)N1CCC(c2c(C(=O)NCc3ccco3)cnn2-c2ccc(F)cc2)CC1 | inactive
28 | Clc1ccc(CN2CCSCC2)cc1Cl | inconclusive: 79.4 µM [inhibitor, single point]
29 | Cc1ccc(Nc2nnc(SC/C(O)=C(\C#N)c3nc4ccccc4[nH]3)s2)c(C)c1 | inactive
30 | Cc1cc(NC(=O)c2cccc(Oc3ccccc3)c2)n[nH]1 | inconclusive: 35.5 µM [inhibitor, partial curve]
31 | CCSc1nnc(NC(=O)C(CC)(C(F)(F)F)C(F)(F)F)s1 | inconclusive: 89.1 µM [inhibitor, single point]
32 | COc1cccc(C2C(C(C)=O)=C(O)C(=O)N2Cc2ccco2)c1 (centres undefined) | inconclusive: 89.1 µM [inhibitor, single point]
33 | Cn1c(=O)c(Oc2ccc(F)cc2)c(O)c2ccccc21 | inactive
34 | CCCc1cc(=O)oc2cc(OCC(=O)NCCCN3CCOCC3)c(Cl)cc12 | inactive
35 | COc1ccc(NC(=S)Nc2cccc(S(=O)(=O)N3CCCCC3)c2)cc1 | inconclusive: 79.4 µM [inhibitor, single point]
36 | CC(/C=C1\N=C(SCc2ccccc2Cl)SC1=O)=C\c1ccccc1 | inconclusive: 28.2 µM [inhibitor, full curve, poor fit]
37 | COc1ccc(NC(=O)CSCC(=O)Nc2nnc(CC(C)C)s2)cc1 | inactive
38 | CCOc1ccc(NC(=O)COc2ccc3c(c2)OCO3)cc1 | inconclusive: 70.8 µM [inhibitor, single point]
39 | Cc1ccc(-n2c(C)cc(/C([O-])=C(/C(=S)Nc3ccc(F)c(Cl)c3)[n+]3ccccc3)c2C)cc1 | inconclusive: 79.4 µM [inhibitor, single point]
40 | CCn1c(SCC(=O)N/N=C/C(C)=C\c2ccco2)nnc1-c1ccccc1 | inconclusive: 44.7 µM [inhibitor, partial curve]
41 | CCCn1c2ccccc2c2cc(C(=O)O)ccc21 | inactive
42 | COc1ccc(NC(=O)CSCC(=O)N(C)CC(=O)Nc2cccc3ccccc23)cc1 | inactive
43 | COc1ccc(Cc2nnc(N/N=C/c3ccc(O)cc3O)[nH]c2=O)cc1OC | active: 5.01 µM
44 | O=C(/C=C/c1ccc(OC(F)F)cc1)Nc1cccc(S(=O)(=O)NC2=NCCCCC2)c1 | inactive
45 | COc1ccc(SCCN2CC[C@@H](C(C)(C)C)CCC2=O)cc1 | inactive
46 | CCc1cccc(NC(=O)CSc2ncc3c(n2)-c2ccccc2N(Cc2ccccc2C)S3(=O)=O)c1 | inactive
47 | O=C(CC1(O)C(=O)N(CCc2ccccc2)c2ccc(Br)cc21)c1ccccc1O (centres undefined) | inconclusive: 44.7 µM [inhibitor, partial curve]
48 | Cc1nn(Cc2ccc(F)cc2)c(C)c1NC(=O)c1cnn2c1NC(c1cccs1)CC2C(F)(F)F (centres undefined) | inconclusive: 100 µM [inhibitor, single point]
49 | O=C(CC1SC(N2CCCCC2)=NC1=O)Nc1cccc(C(=O)Nc2ncccc2O)c1 (centres undefined) | inconclusive: 89.1 µM [inhibitor, single point]
50 | COc1ccc(NC(=O)CSC2=C(C#N)C(c3ccco3)C3=C(CCCC3=O)N2)c(OC)c1 (centres undefined) | active: 79.4 µM

Row | SMILES | Potency
51 | O=C(NCC(c1ccco1)N1CCCC1)c1cc(S(=O)(=O)N2CCOCC2)ccc1Cl (centres undefined) | inactive
52 | COc1cc(NC(=O)[C@@H](NC(=O)N2CCn3c2nc2ccccc23)C(C)C)cc(OC)c1 | inconclusive: 70.8 µM [inhibitor, single point]
53 | N#Cc1c(N)oc(-c2ccc3c(c2)OCO3)c1-c1ccc2c(c1)OCO2 | inconclusive: 31.6 µM [inhibitor, single point]
54 | CCCCNC(=O)[C@H]1C[C@H]1[C@@H](O)[C@H](CO)NC(=O)[C@H](Cc1ccccc1)NC(=O)OC(C)(C)C | inactive
55 | O=C(Nc1ccc(O)c(-c2nc3ccccc3s2)c1)c1cc(=O)c2ccccc2o1 | inactive
56 | Cc1cc(C)c(C#N)c(SCC(=O)c2cccs2)n1 | inactive
57 | CCN(CC(=O)NCc1ccc(F)cc1)C(=O)c1ccc(C(=O)c2ccccc2)cc1 | inconclusive: 89.1 µM [inhibitor, single point]
58 | COc1ccccc1/C=C/C=c1\sc2nc(=O)c(Cc3ccccc3)nn2c1=O | active: 44.7 µM
59 | CC1CCc2sc(C(=O)NNS(=O)(=O)c3ccc(F)c(F)c3F)cc2C1 (centres undefined) | inactive
60 | O=C(CCc1nnc(Cc2c[nH]c3ccccc23)o1)NCC1CC12CCCCC2 (centres undefined) | inconclusive: 89.1 µM [inhibitor, single point]
61 | COc1ccccc1NS(=O)(=O)c1cc(NC(=S)NCCN2CCOCC2)ccc1N1CCOCC1 | inconclusive: 89.1 µM [inhibitor, single point]
62 | CN(C)c1ccc(-c2nc3ccccn3c2Nc2ccc3c(c2)OCCO3)cc1 | inactive
63 | CCCN(CCC)C(=O)c1ccc2c(c1)N(CC)C(=O)c1ccccc1S2(=O)=O | inconclusive: 89.1 µM [inhibitor, single point]
64 | C1=CC2C3C=CC(C3)C2C1 (centres undefined) | inactive
65 | O=C(CCN1CCCCC1)Nn1c(=S)[nH]c2ccccc2c1=O | inconclusive: 5.01 µM [inhibitor, full curve]
66 | O=C(COC(=O)C1CCCCC1C(=O)N1CCc2ccccc21)NCc1ccco1 (centres undefined) | active: 50.1 µM
67 | Cn1c(=O)c2c(c3ccccc31)OC(=O)CC2c1ccccc1 (centres undefined) | inactive
68 | CC(C)c1ccc(NC(=O)CSC2=Nc3ccccc3C3=NC(CC(=O)NCc4ccco4)C(=O)N23)cc1 (centres undefined) | inconclusive: 79.4 µM [inhibitor, single point]
69 | O=C(CSc1nnc(SCc2ccccc2)s1)N/N=C/C=C\c1ccco1 | active: 14.1 µM
70 | COc1ccc(Cn2c(C3CCCCC3)nc3c(c(=O)c4ccccc4n3C)c2=O)cc1 | inconclusive: 79.4 µM [inhibitor, partial curve]
71 | Cc1ccc(-n2nc(C)c(C(=O)NCCCN3CCN(c4ccccc4F)CC3)c2-n2cccc2)cc1 | inconclusive: 50.1 µM [inhibitor, partial curve]
72 | CCNC(=O)C1CCCc2c1[nH]c1ccc(Cl)cc21 (centres undefined) | active: 79.4 µM
73 | CCCNC(=O)c1cc(-c2ccc(OC)cc2)n(CCCOC)c1C | inconclusive: 89.1 µM [inhibitor, single point]
74 | COc1ccc(C(=O)Nc2ccc3c(c2)N(C)C(=O)c2ccccc2S3)cc1OC | inactive
